Measurements from patent US8592383B2, “Cycloalkyl-fused tetrahydroquinolines as CRTH2 receptor modulators” (Merck Sharp & Dohme Corp., priority 2011, dated 2013).

Target: T1, hCRTH2 (Homo sapiens, UniProt Q9Y5Y4)
T1 sequence (Q9Y5Y4 1-395): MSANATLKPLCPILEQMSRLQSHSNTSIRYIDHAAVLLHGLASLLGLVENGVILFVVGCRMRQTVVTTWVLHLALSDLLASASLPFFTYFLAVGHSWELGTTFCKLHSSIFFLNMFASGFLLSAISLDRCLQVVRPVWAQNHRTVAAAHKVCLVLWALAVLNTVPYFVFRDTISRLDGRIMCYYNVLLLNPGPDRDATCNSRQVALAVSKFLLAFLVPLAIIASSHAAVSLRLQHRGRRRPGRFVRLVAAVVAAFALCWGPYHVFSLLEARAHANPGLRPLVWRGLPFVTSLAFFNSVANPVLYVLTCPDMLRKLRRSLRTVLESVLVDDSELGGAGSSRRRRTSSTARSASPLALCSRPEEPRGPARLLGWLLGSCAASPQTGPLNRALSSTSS
Experiment: biochemical
Conditions: Ki (nM), Table A; Radioligand Binding Assay A, [3H]PGD2, HEK-hCRTH2 membranes

Ki | SMILES
5.1 to 20 nM | O=C(O)CCC(=O)N(C1CCC1)[C@@H]1c2ccc(Cl)cc2N(C(=O)c2cc(F)cc(F)c2)[C@@H]2CCC[C@@H]21 (single isomer, unassigned) [17CP, 4-[[cis,cis-6-chloro-4-(3,5-difluorobenzoyl)-2,3,3a,4,9,9a-hexahydro-1H-cyclopenta[b]quinolin-9-yl]cyclobutylamino]-4-oxobutanoic acid]
1 to 5 nM | O=C(O)CCC(=O)N(C1CCC1)C1c2ccc(Cl)cc2N(C(=O)c2ccc3ccccc3c2)C2CCCC21 (single isomer, unassigned) [17CR, 4-[[cis,cis-6-chloro-2,3,3a,4,9,9a-hexahydro-4-(2-naphthalenylcarbonyl)-1H-cyclopenta[b]quinolin-9-yl]cyclobutylamino]-4-oxobutanoic acid]
5.1 to 20 nM | O=C(O)CCC(=O)N(C1CCC1)C1c2ccc(Cl)cc2N(C(=O)c2ccc(C(F)(F)F)cc2)C2CCCC21 (single isomer, unassigned) [17CS, 4-[[cis,cis-6-chloro-2,3,3a,4,9,9a-hexahydro-4-[4-(trifluoromethyl)benzoyl]-1H-cyclopenta[b]quinolin-9-yl]cyclobutylamino]-4-oxobutanoic acid]
1 to 5 nM | O=C(O)CCC(=O)N(C1CC1)C1c2ccc(Cl)cc2N(C(=O)c2cccc(OC(F)(F)F)c2)C2CCCC21 (single isomer, unassigned) [17CU, 4-[[cis,cis-6-chloro-2,3,3a,4,9,9a-hexahydro-4-[3-(trifluoromethoxy)benzoyl]-1H-cyclopenta[b]quinolin-9-yl]cyclopropylamino]-4-oxobutanoic acid]
1 to 5 nM | O=C(O)CCC(=O)N(C1CC1)C1c2ccc(Cl)cc2N(C(=O)c2ccc(F)cc2)C2CCCC21 (single isomer, unassigned) [17CV, 4-[[cis,cis-6-chloro-4-(4-fluorobenzoyl)-2,3,3a,4,9,9a-hexahydro-1H-cyclopenta[b]quinolin-9-yl]cyclopropylamino]-4-oxobutanoic acid]
5.1 to 20 nM | O=C(O)CCC(=O)N(C1CC1)C1c2ccc(Cl)cc2N(C(=O)c2cc(F)cc(F)c2)C2CCCC21 (single isomer, unassigned) [17CW, 4-[[cis,cis-6-chloro-4-(3,5-difluorobenzoyl)-2,3,3a,4,9,9a-hexahydro-1H-cyclopenta[b]quinolin-9-yl]cyclopropylamino]-4-oxobutanoic acid]
1 to 5 nM | O=C(O)CCC(=O)N(C1CC1)C1c2ccc(Cl)cc2N(C(=O)C2CC2c2ccccc2)C2CCCC21 (single isomer, unassigned) [17CX, 4-[[cis,cis-6-chloro-2,3,3a,4,9,9a-hexahydro-4-[(trans-2-phenylcyclopropyl)carbonyl]-1H-cyclopenta[b]quinolin-9-yl]cyclopropylamino]-4-oxobutanoic acid]
5.1 to 20 nM | O=C(O)CCC(=O)N(C1CCC1)[C@@H]1c2ccccc2N(C(=O)c2ccc(OC(F)(F)F)cc2)[C@@H]2CCC[C@@H]21 (single isomer, unassigned) [17CZ, 4-[cyclobutyl[cis,cis-2,3,3a,4,9,9a-hexahydro-4-[4-(trifluoromethoxy)benzoyl]-1H-cyclopenta[b]quinolin-9-yl]amino]-4-oxobutanoic acid]
5.1 to 20 nM | O=C(O)CCC(=O)N(C1CCC1)C1c2ccc(Cl)cc2N(C(=O)c2ccc(F)c(F)c2)C2CCCC21 (single isomer, unassigned) [17Co, 4-[[cis,cis-6-chloro-4-(3,4-difluorobenzoyl)-2,3,3a,4,9,9a-hexahydro-1H-cyclopenta[b]quinolin-9-yl]cyclobutylamino]-4-oxobutanoic acid]
20.1 to 200 nM | O=C(O)CCC(=O)N(C1CCC1)[C@@H]1c2ccccc2N(C(=O)c2cccc(OC(F)(F)F)c2)[C@@H]2CCC[C@@H]21 (single isomer, unassigned) [17DA, 4-[cyclobutyl[cis,cis-2,3,3a,4,9,9a-hexahydro-4-[3-(trifluoromethoxy)benzoyl]-1H-cyclopenta[b]quinolin-9-yl]amino]-4-oxobutanoic acid]
